Experimental findings from the supplement of paper PMC4604168 (melanoma cell lines) are described below.

Some of the results follow. Single values are uncertain, as repeats are few or missing.
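Note: cell number obtained by counting DAPI-stained nuclei in high-throughput microscope images with image analysis software, screen run in 1,536-well plates.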

In this assay the test system is SkMel28. Kind of assay: cell count relative to DMSO control; melanoma cells; higher = more viable cells. To be noted: library dose: low library concentration; 72 h.
`O=C(O)[C@@H]1[O][Sb](=[O])([O][Sb]2(=[O])[O][C@H]([C@H](O)CO)[C@H](O)[C@H](C(=O)O)[O]2)[O][C@H]([C@H](O)CO)[C@@H]1O` (stereo not given in full) [stibogluconate] + CN(C)S(=O)(=O)c1ccc2c(c1)/C(=C/c1cc3c([nH]1)CCCC3)C(=O)N2 [SU6656] (first compound 2 µM, partner dose 0.4 µM) came in with a cell count of 90.9%.
The compound `O=C(O)c1ccc2c(c1)nc(Nc1cccc(Cl)c1)c1ccncc12` + C[C@]1(c2nc3c(C(N)=O)cccc3[nH]2)CCCN1 [Veliparib] (first compound 0.4 µM, partner dose 1.4 µM) came in with a cell count of 94.5%.
Consider `O=C(Nc1cc(C(F)(F)F)cc(C(F)(F)F)c1)c1cc(Cl)ccc1O` + NC(=O)c1ccc(N(C(N)=O)c2c(F)cccc2F)nc1-c1ccc(F)cc1F [VX702] (first compound 0.016 µM, partner dose 0.4 µM), for which the cell count is 70.9%.
For the compound `O=C(Nc1cc(C(F)(F)F)cc(C(F)(F)F)c1)c1cc(Cl)ccc1O` + Cn1cnc2c(F)c(Nc3ccc(Br)cc3Cl)c(C(=O)NOCCO)cc21 [selumetinib] (first compound 0.016 µM, partner dose 0.015 µM), the cell count was 105%.
With `O=C(O)c1ccc2c(c1)nc(Nc1cccc(Cl)c1)c1ccncc12` + O=C1NC(=O)/C(=C/c2ccc(-c3ccc(F)cc3O)o2)S1 [AS252424] (first compound 0.4 µM, partner dose 1 µM), the cell count was 98%.
`O=C(Nc1cc(C(F)(F)F)cc(C(F)(F)F)c1)c1cc(Cl)ccc1O` + O=C(O)[C@@H]1[O][Sb](=[O])([O][Sb]2(=[O])[O][C@H]([C@H](O)CO)[C@H](O)[C@H](C(=O)O)[O]2)[O][C@H]([C@H](O)CO)[C@@H]1O [stibogluconate] (first compound 0.016 µM, partner dose 2 µM) came in with a cell count of 91%.
Regarding `O=C(O)c1ccc2c(c1)nc(Nc1cccc(Cl)c1)c1ccncc12` + OCc1c[nH]c2ccccc12 [Indole-3-carbinol] (first compound 0.4 µM, partner dose 0.8 µM), the cell count came to 97.7%.
The compound `O=C(Nc1cc(C(F)(F)F)cc(C(F)(F)F)c1)c1cc(Cl)ccc1O` + COc1cc2ncnc(Nc3ccc(Oc4ccccc4)cc3)c2cc1OC [SrcI1] (first compound 0.016 µM, partner dose 2 µM) showed a cell count of 105%.
Compound `O=C(O)[C@@H]1[O][Sb](=[O])([O][Sb]2(=[O])[O][C@H]([C@H](O)CO)[C@H](O)[C@H](C(=O)O)[O]2)[O][C@H]([C@H](O)CO)[C@@H]1O` (stereo not given in full) [stibogluconate] + COc1cc(Nc2ncc(F)c(Nc3ccc4c(n3)NC(=O)C(C)(C)O4)n2)cc(OC)c1OC [Tamatinib] (first compound 2 µM, partner dose 0.4 µM) came in with a cell count of 92.3%.
Consider `O=C(Nc1cc(C(F)(F)F)cc(C(F)(F)F)c1)c1cc(Cl)ccc1O` + CC1(C)CCC(c2ccc(Cl)cc2)=C(CN2CCN(c3ccc(C(=O)NS(=O)(=O)c4ccc(N[C@H](CCN5CCOCC5)CSc5ccccc5)c(S(=O)(=O)C(F)(F)F)c4)cc3)CC2)C1 [ABT263] (first compound 0.016 µM, partner dose 0.4 µM), for which the cell count stood at 92.9%.
With `O=C(Nc1cc(C(F)(F)F)cc(C(F)(F)F)c1)c1cc(Cl)ccc1O` + CC(C)CCN1c2nc(Nc3cc(F)c(O)c(F)c3)ncc2N(C)C(=O)C1C [BID1870] (first compound 0.016 µM, partner dose 0.2 µM) the figure was 97.4%; with `O=C(Nc1cc(C(F)(F)F)cc(C(F)(F)F)c1)c1cc(Cl)ccc1O` + O=C(Nc1cccc(Cl)c1)Nc1ncc(CCNc2ncnc3ccsc23)s1 [SNS314] (first compound 0.016 µM, partner dose 0.0008 µM), 90.7%.
`O=C(O)[C@@H]1[O][Sb](=[O])([O][Sb]2(=[O])[O][C@H]([C@H](O)CO)[C@H](O)[C@H](C(=O)O)[O]2)[O][C@H]([C@H](O)CO)[C@@H]1O` (stereo not given in full) [stibogluconate] + CCc1ccc(CCOc2ccc(CC3SC(=O)NC3=O)cc2)nc1 [pioglitazone] (first compound 2 µM, partner dose 2 µM) gave a cell count of 96.7%.
`O=C(O)[C@@H]1[O][Sb](=[O])([O][Sb]2(=[O])[O][C@H]([C@H](O)CO)[C@H](O)[C@H](C(=O)O)[O]2)[O][C@H]([C@H](O)CO)[C@@H]1O` (stereo not given in full) [stibogluconate] + O=C(O)C(=O)Nc1sc2c(c1C(=O)O)CCNC2 [TCS401] (first compound 2 µM, partner dose 1.66667 µM): the cell count is 90.5%.
`O=C(Nc1cc(C(F)(F)F)cc(C(F)(F)F)c1)c1cc(Cl)ccc1O` + CS(=O)(=O)c1ccc(C(=O)Nc2ccc(Cl)c(-c3ccccn3)c2)c(Cl)c1 [vismodegib] (first compound 0.016 µM, partner dose 1 µM) returned a cell count of 132%.
`O=C(Nc1cc(C(F)(F)F)cc(C(F)(F)F)c1)c1cc(Cl)ccc1O` + COc1ccc(Cl)c(Nc2nc3ccccc3nc2NS(=O)(=O)c2cccc(NC(=O)C(C)(C)N)c2)c1 [XL147] (first compound 0.016 µM, partner dose 0.8 µM): the cell count worked out at 94.2%.
With `O=C(O)c1ccc2c(c1)nc(Nc1cccc(Cl)c1)c1ccncc12` + Cn1nnc2c(C(N)=O)ncn2c1=O [temozolomide] (first compound 0.4 µM, partner dose 2 µM) the figure was 92.7%.
`O=C(O)c1ccc2c(c1)nc(Nc1cccc(Cl)c1)c1ccncc12` + CC1(C)NC(=O)N(c2ccc([N+](=O)[O-])c(C(F)(F)F)c2)C1=O [nilutamide] (first compound 0.4 µM, partner dose 1 µM) showed a cell count of 82.6%.
Turning to `O=C(O)c1ccc2c(c1)nc(Nc1cccc(Cl)c1)c1ccncc12` + Oc1nc(-c2ccc(C(F)(F)F)cc2)nc2c1CSCC2 [XAV939] (first compound 0.4 µM, partner dose 2 µM), the cell count amounted to 105%.
Regarding `O=C(O)[C@@H]1[O][Sb](=[O])([O][Sb]2(=[O])[O][C@H]([C@H](O)CO)[C@H](O)[C@H](C(=O)O)[O]2)[O][C@H]([C@H](O)CO)[C@@H]1O` (stereo not given in full) [stibogluconate] + C#Cc1cccc(Nc2ncnc3cc(OCCOC)c(OCCOC)cc23)c1 [erlotinib] (first compound 2 µM, partner dose 0.8 µM), the cell count was determined as 118%.
For `O=C(O)[C@@H]1[O][Sb](=[O])([O][Sb]2(=[O])[O][C@H]([C@H](O)CO)[C@H](O)[C@H](C(=O)O)[O]2)[O][C@H]([C@H](O)CO)[C@@H]1O` (stereo not given in full) [stibogluconate] + C[C@@H]1CCN(C(=O)CC#N)C[C@@H]1N(C)c1ncnc2[nH]ccc12 [CP690550] (first compound 2 µM, partner dose 1 µM), the cell count was 90.2%.
Compound `O=C(O)[C@@H]1[O][Sb](=[O])([O][Sb]2(=[O])[O][C@H]([C@H](O)CO)[C@H](O)[C@H](C(=O)O)[O]2)[O][C@H]([C@H](O)CO)[C@@H]1O` (stereo not given in full) [stibogluconate] + OCc1c[nH]c2ccccc12 [Indole-3-carbinol] (first compound 2 µM, partner dose 0.8 µM) registered a cell count of 90.7%.
Compound `O=C(Nc1cc(C(F)(F)F)cc(C(F)(F)F)c1)c1cc(Cl)ccc1O` + Clc1ccc(Nc2nnc(Cc3ccncc3)c3ccccc23)cc1 [vatalanib] (first compound 0.016 µM, partner dose 2 µM) returned a cell count of 108%.
With `O=C(Nc1cc(C(F)(F)F)cc(C(F)(F)F)c1)c1cc(Cl)ccc1O` + CN(NC(=O)CC(=O)NN(C)C(=S)c1ccccc1)C(=S)c1ccccc1 [STA4783] (first compound 0.016 µM, partner dose 0.006 µM) the figure was 95.1%.
The compound `O=C(Nc1cc(C(F)(F)F)cc(C(F)(F)F)c1)c1cc(Cl)ccc1O` + COCC[n+]1c2c(n(Cc3cnccn3)c1C)C(=O)c1ccccc1C2=O [YM155] (first compound 0.016 µM, partner dose 0.0004 µM) displayed a cell count of 103%.
`O=C(Nc1cc(C(F)(F)F)cc(C(F)(F)F)c1)c1cc(Cl)ccc1O` + O=C(O)c1ccc2c(c1)nc(Nc1cccc(Cl)c1)c1ccncc12 [CX4945] (first compound 0.016 µM, partner dose 0.4 µM): the cell count stood at 108%.
As to `O=C(Nc1cc(C(F)(F)F)cc(C(F)(F)F)c1)c1cc(Cl)ccc1O` + CCCCCCCCCCCCCCCCCCOP(=O)([O-])OC1CC[N+](C)(C)CC1 [Perifosine] (first compound 0.016 µM, partner dose 0.4 µM), the cell count amounted to 104%.
`O=C(O)c1ccc2c(c1)nc(Nc1cccc(Cl)c1)c1ccncc12` + NC(=O)Nc1cc(-c2cccc(F)c2)sc1C(=O)N[C@H]1CCCNC1 [AZD7762] (first compound 0.4 µM, partner dose 0.02 µM) returned a cell count of 119%.
With `O=C(Nc1cc(C(F)(F)F)cc(C(F)(F)F)c1)c1cc(Cl)ccc1O` + C#Cc1cccc(Nc2ncnc3cc(OCCOC)c(OCCOC)cc23)c1 [erlotinib] (first compound 0.016 µM, partner dose 0.8 µM), the cell count came out at 88.9%.
With `O=C(O)[C@@H]1[O][Sb](=[O])([O][Sb]2(=[O])[O][C@H]([C@H](O)CO)[C@H](O)[C@H](C(=O)O)[O]2)[O][C@H]([C@H](O)CO)[C@@H]1O` (stereo not given in full) [stibogluconate] + Nc1nc(F)nc2c1ncn2[C@@H]1O[C@H](CO)[C@@H](O)[C@@H]1O [fludarabine] (first compound 2 µM, partner dose 0.2 µM) the figure was 95.4%.
